In PubChem BioAssay AID624170 (National Center for Advancing Translational Sciences (NCATS), 2012):
About 850 (0.21%) of roughly 410,000 compounds were called active. The inconclusive results got no clear call from the source; some entries with a clear call stand among them for comparison. Calls come from the whole dose curve; as a rule, active = well fitted inhibition curve with a large enough effect; inconclusive = small, poorly fitted or top-dose-only effect, or another doubt; inactive = no such curve, though single readings can be large or run the other way. No potency is given beside an inconclusive call; the fits are too rough.

The compounds below were run against Glutaminase kidney isoform, mitochondrial (Homo sapiens) (UniProt O94925) (assay: qHTS for Inhibitors of Glutaminase (GLS)). Settings: GLS enzymatic activity, qHTS titration; series mostly up to 45.5 µM; activity change, negative = inhibition: at the top concentration.
UniProt O94925, sequence (O94925 whole entry, looked up, canonical isoform): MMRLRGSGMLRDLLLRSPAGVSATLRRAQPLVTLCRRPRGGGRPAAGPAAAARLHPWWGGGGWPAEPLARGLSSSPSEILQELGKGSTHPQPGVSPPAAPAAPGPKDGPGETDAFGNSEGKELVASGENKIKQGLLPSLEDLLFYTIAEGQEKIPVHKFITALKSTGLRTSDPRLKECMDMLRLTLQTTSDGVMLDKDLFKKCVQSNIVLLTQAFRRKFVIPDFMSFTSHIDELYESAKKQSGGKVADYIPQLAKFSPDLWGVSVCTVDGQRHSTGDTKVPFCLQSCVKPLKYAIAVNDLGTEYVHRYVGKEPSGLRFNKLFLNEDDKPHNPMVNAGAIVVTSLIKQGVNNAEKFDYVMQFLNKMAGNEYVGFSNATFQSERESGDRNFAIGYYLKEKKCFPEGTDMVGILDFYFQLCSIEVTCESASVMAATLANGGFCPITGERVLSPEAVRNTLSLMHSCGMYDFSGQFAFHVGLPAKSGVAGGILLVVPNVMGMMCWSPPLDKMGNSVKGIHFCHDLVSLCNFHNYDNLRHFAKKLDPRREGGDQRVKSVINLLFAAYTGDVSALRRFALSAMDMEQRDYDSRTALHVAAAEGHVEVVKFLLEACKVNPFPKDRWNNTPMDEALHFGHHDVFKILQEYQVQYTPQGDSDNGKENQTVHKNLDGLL
How it was run: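 Compounds were pin-transferred onto hKGA, after which L-glutamine (1 mM solution) and a detection mix of glutamate oxidase, HRP and Amplex Red were added. Initial and 30 min RT fluorescence reads were collected.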
% is set by controls: 0 for no effect and ±100 for the full control effect; potency is the fitted concentration of half-maximal effect; tags give direction and shape of the fitted curve.

Question: `CCCCNC(=S)N/N=C/c1cccc(OCC)c1O` was tested. Which Potency did it give?
Answer: active: 8.91 µM

Question: Which “activity change, negative = inhibition” value does the source give for `Cc1cc(C)cc(OCCCC(=O)O)c1` here?
Answer: inactive: 5.38%

Question: Which Potency does the source give for `COC(=O)c1sccc1NN1C(=O)c2ccccc2C1=O` here?
Answer: inconclusive [inhibitor, single point]

Question: For `COCCCNC(=O)CSc1nc2c(sc(=S)n2-c2cc(Cl)ccc2OC)c(=O)[nH]1`, which Potency is on record?
Answer: inconclusive [inhibitor, single point]

Question: With `O=C(Nc1cccc(C(F)(F)F)c1)c1cccc(NS(=O)(=O)c2ccc(O)c(C(=O)O)c2)c1` as the compound, how does the Potency read?
Answer: inconclusive [inhibitor, single point]

Question: How did the “activity change, negative = inhibition” value turn out when `CC[C@H](C)[C@@H]1NC(=O)c2cc([N+](=O)[O-])cc(F)c2OCC[C@@H](C(N)=O)NC(=O)[C@H](CCCCN)NC1=O` was run?
Answer: inactive: 2.41%

Question: With `CCOC(=O)Nc1sc2c(c1C(N)=O)CCC(C)C2` (stereo not given) as the compound, how does the “activity change, negative = inhibition” value read?
Answer: inactive: -0.131%

Question: How did the Potency turn out when `CN1CCc2c(sc(/N=C/c3c[nH]c4ccccc34)c2C(N)=O)C1` was run?
Answer: inconclusive [inhibitor, partial curve, poor fit]

Question: How did the Potency turn out when `CC1(C)CC(=O)C(C(=O)/C=C/c2ccco2)C(=O)C1` was run?
Answer: inconclusive [inhibitor, single point]

Question: For `COc1ccc(-c2ccc(OC(=O)NC3CCS(=O)(=O)C3)cc2)cc1` (stereo not given), which Potency is on record?
Answer: inconclusive [inhibitor, single point]

Question: Which Potency does the source give for `CCC(C)N1C(=S)SC(C)(C)C1N(O)C(=O)NC1CCCCC1` (stereo not given) here?
Answer: inconclusive [inhibitor, single point]

Question: Which Potency does the source give for `O=C(CONS(=O)(=O)c1ccc(Cl)cc1)NCCNc1ncc(C(F)(F)F)cc1Cl` here?
Answer: inconclusive [inhibitor, single point]

Question: How did the “activity change, negative = inhibition” value turn out when `Cc1cc(N2CCN(C)CC2)nc(=S)[nH]1` was run?
Answer: inactive: -10.6%

Question: `CCC(C)C1Nc2ccc(C(=O)NCCc3ccc(OC)c(OC)c3)cc2NC1=O` (stereo not given) was tested. Which Potency did it give?
Answer: inconclusive [inhibitor, partial curve]

Question: With `O=C(O)CCC(=O)Nc1ccc(SSc2ccc(NC(=O)CCC(=O)O)cc2)cc1` as the compound, how does the Potency read?
Answer: inconclusive [inhibitor, single point]

Question: With `CN(CC(=O)Nc1ccccc1N1CCOCC1)CC(=O)Nc1ccc(F)c(F)c1F` as the compound, how does the Potency read?
Answer: inconclusive [inhibitor, single point]

Question: For `C[Se]CC[C@H](N)C(=O)O`, which “activity change, negative = inhibition” value is on record?
Answer: inactive: 0.734%

Question: With `CN=c1nc(-c2ccccc2)n(-c2ccccc2)s1` as the compound, how does the Potency read?
Answer: inconclusive [inhibitor, partial curve, poor fit]

Question: How did the Potency turn out when `Nc1nc(N)c2c(n1)CN(Cc1ccc(Cl)cc1)C2` was run?
Answer: active: 11.2 µM

Question: For `CC1CCCCN1C(=O)CSc1nc(C2CC2)nc2c1cnn2-c1ccccc1` (stereo not given), which “activity change, negative = inhibition” value is on record?
Answer: inactive: -3.92%
